Measurements published in the supplement of paper PMC3334620.
In all, about 33,000 sequences were measured (“E-score (-0.5 to 0.5)”: median about -0.054, highest 2% from about 0.39 on). Some of the results follow.

These sequences were tested against Ylr278c (UniProt Q05854) (assay: PBM E-score (8-mer binding enrichment) (E-score (-0.5 to 0.5)); higher = stronger / more preferred TF binding; most listed sequences are background and not binding sites). Settings: protein concentration: 200 nM; construct: GST-DNA-binding domain.
In short: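 The E-score, a modified Wilcoxon-Mann-Whitney statistic, was computed by the Universal PBM Analysis Suite for every ungapped eight-base word pooled with its reverse complement. Scans behind it were normalised with masliner after bound GST-tagged yeast transcription factors were detected with fluorescent anti-GST. The proteins, at about 100-200 nM, had been applied to universal all-10-mer Agilent arrays made double-stranded by primer extension.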

Sequence | PBM E-score
ACCGGTGC | 0.253
AATAGTTC | -0.00943
AATAACTC | 0.0539
GAAACTTC | 0.0593
ATCCGTCC | 0.18
CGGGTACC | -0.0162
ATTTCCAC | 0.127
AGCTCTTG | -0.261
ATTAAAGG | 0.0275
AGTGCTGA | -0.115
ACGGCGGC | 0.167
CCCTTACC | -0.256
ACGAACCG | -0.0765
AGCCTAAT | -0.184
AATATTAA | 0.0847
ATATATGA | -0.163
AACAACGC | -0.0163
CGGTCCAG | 0.00468
ACGCTAGG | -0.279
CTTTCGTA | -0.173
GACGTACC | -0.0756
GCCAGGCA | -0.0104
CACCCTTA | -0.108
ACGTCAAA | -0.156
GTATGATA | -0.0851

Sequence | PBM E-score
AAGCTTGG | -0.227
ACGCCATG | -0.318
CGCTGGTA | -0.125
AACCACCT | 0.081
AGGAGGAA | -0.165
ACCCAAGT | -0.215
ATACTGGG | -0.0575
AACTAGTC | -0.168
AACGATCG | 0.0379
AGCGTGAC | -0.0417
CAGGAACC | -0.146
CTCTTCCC | -0.134
CACGTCAA | -0.202
ATATCCAT | -0.104
AATTGGTC | 0.0862
AGATCTAT | -0.219
CGCGACGA | 0.0288
CAAGCTAG | -0.25
CAAACACA | -0.233
AGGTCGCC | 0.0324
AGAGTAGA | -0.0108
CACGTTCC | -0.0503
ACCGGTTC | 0.234
CATCTAGC | -0.143
ATGAAGCG | -0.0128

Sequence | PBM E-score
AAACTTAT | 0.0821
AGGCAAGA | -0.222
TGGGTCAA | -0.254
CTTTATTA | -0.172
CATCCGCA | 0.191
CGACGACG | 0.0129
CGAAAATA | 0.137
GAGAGTTA | -0.158
ATCTCTTC | -0.0198
ACTCGCGC | 0.152
AGATCAGC | 0.0216
CCATTACC | 0.0409
CACGGCCG | 0.234
GATTTTGA | 0.0907
AATTTATG | 0.0615
AGGACGAC | -0.166
CATACGCA | -0.0371
GTTGATGA | 0.0375
TATATAAA | -0.0633
ACCTCACC | 0.0171
CATTCTCA | -0.0558
ACTCATGA | -0.182
CCAATGGG | -0.166
TATAATAA | 0.0321
AGACCTTA | -0.115

Sequence | PBM E-score
AGATTACG | 0.154
TTTCCAAA | -0.0606
AGGTCTAA | -0.0866
ACATGCCC | -0.128
CCCGTAGA | -0.0186
ACCACGGT | -0.197
ACAATCGC | 0.154
CAAGTCCG | 0.455
AAATATGT | 0.19
AAAATACT | 0.11
ATATTCAG | -0.0289
CCCACCAG | -0.212
ATGAGTCA | -0.274
GTCAGCGA | -0.131
AATCAGGG | -0.199
ACGGGACG | 0.0663
ATGAATTG | -0.0937
GCACCCCA | 0.0499
TGTGAACA | -0.123
GTGTTGGA | -0.122
CACCTTAA | -0.162
CGGGTCAA | 0.266
CATCGTAC | -0.204
GTCGACAC | -0.141
TACGTAAA | -0.441

Sequence | PBM E-score
AATTATGG | -0.0486
CCAGCCCC | 0.0145
TGGTCAAA | -0.222
CCGTTAGG | 0.0236
AGGCCAAT | -0.0939
AGCTAACA | -0.174
CAATAGAC | -0.115
ATCCCTAC | -0.0443
GAGAGGGA | -0.239
ACATCCCA | -0.131
AACTAAGG | -0.149
CGACCCTC | -0.00161
GGCTTTGA | 0.131
AAGGCGTG | -0.117
GACGCCCA | -0.036
AGGCGAAC | -0.157
GAGAAGCA | -0.0512
CTAATAAA | -0.0675
GCTAAGTA | -0.1
CCTTTGCA | -0.219
AGCTGACA | -0.133
AGCGGCCT | 0.129
CCGTATTC | 0.202
ACGCTCGA | -0.123
AGTTGTAG | -0.0909

Sequence | PBM E-score
GCTGCGCA | 0.163
ACAAGGGA | -0.21
AGTAAGAG | -0.244
CACACCGC | 0.107
AACATAGG | -0.121
TAAACTGA | -0.0238
GCGTCACA | -0.167
ACGTCGGC | 0.239
CCTCCAAA | -0.14
ACCGCACA | -0.0956
ACCTATTC | 0.0665
AAAGGCTA | -0.307
GATTCTAA | -0.182
GTCATTGA | -0.154
AAATCGGA | 0.43
AAGTCCGG | 0.481
ATCTATCG | -0.084
ACGGAGCT | 0.395
ATTTTCTG | 0.0498
AAGCCCCA | -0.203
ATAACTGC | -0.058
AGCAAGTC | -0.121
CGGACTGA | 0.255
GTAACACA | -0.0154
AACAGTAG | -0.124

Sequence | PBM E-score
CGCCCCTA | 0.129
CAAGAGAA | 0.081
ACGACGTC | -0.0271
CGTACTGA | 0.109
GGACTAAA | 0.211
CGATCGGC | 0.282
AAAGTCGC | 0.146
AATCAGAG | -0.0351
ATGGGCAG | -0.296
CCCGAAGA | 0.156
CCAAACGA | -0.0829
GCGAGAAC | 0.148
TACGGCCA | 0.0517
GCATCCGA | 0.27
AGTCGACC | -0.00807
ACAGCACA | -0.0319
GCCCCGCA | 0.168
CGGCTTTA | 0.306
ACTTAGCT | -0.263
ATCTGTAA | 0.019
AACTAACG | 0.0425
ACCTGTCT | -0.132
